Experimental data taken from paper PMC12136788.
The list shows a part of the results.

T1: UNK ZnF1-3 (human, UniProt Q9C0B0 31-174)
T1 sequence: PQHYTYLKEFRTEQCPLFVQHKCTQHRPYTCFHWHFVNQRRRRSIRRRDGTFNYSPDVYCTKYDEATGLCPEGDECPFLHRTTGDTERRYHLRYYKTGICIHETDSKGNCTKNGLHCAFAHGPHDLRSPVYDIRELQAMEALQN

B1: chr12:41043843:41043844:-_ENSMUSG00000055917_ENSMUST00000069637|mus_hu|FALSE|FALSE (ssRNA)
RNA: GGGAGUUCUACAGUCCGACGAUCUUUGGAUUUGAACUUCACAUGGCAGCCAUAACAUCUGCAUUGGUGAACUUGCCUCCGAAUAAAAUUGACCAGUUUCACUUGCUGAUAGAAAUUUAAUCCAAGUUCUGACUUUAUUUUGAGCAACAGAGGAUUGAGCAUCA
B2: 111873916_111874186_6390_CDS_ENSMUSG00000018707_ENSMUST00000018851|mouse|control|control (ssRNA)
RNA: GGGAGUUCUACAGUCCGACGAUCGCCUGCACUUACAAGCACACUCUUCAAAGCCCGAAGCCCAAAGUCAUAAUGGCUUUGAGAAGACAGUUGCUCAUCACACAGUUUGAAGAACGGGACGAUCUUGUUGGCAAGGACCUCAGCCAACAGAGGAUUGAGCAUCA
B3: chr16:94690093:94690094:+_ENSMUSG00000040785_ENSMUST00000117648|mus_hu|mus_mus_mus_hu_True|18_88 (ssRNA)
RNA: GGGAGUUCUACAGUCCGACGAUCGGGCUGGGAUGACGGACACACAGAUCUUCCCAGAGGGGGAAAAAGUCUUAGUCGAUACUAAUUAAAAAGUGUUAAUGAUUUUUGAAAAUCAGAUGUAGAUUAAAAAAGAUGAAAAGCAAACAACAGAGGAUUGAGCAUCA
B4: chr20:57570089:57570090:+_ENSG00000101158_ENST00000344018|hu_hu|motif|central (ssRNA)
RNA: GGGAGUUCUACAGUCCGACGAUCAAAAUUUACUUAUUACUUGUUCUUAGCAAAUUAAGACAAUUACAAUAAAACAUCAGCGGACUGGGUUCUUGUGAGAAAACUGAGGUCAGCUUGGAAAGGAGUUCCCCGAGUGGAGUUCCCCAACAGAGGAUUGAGCAUCA
B5: chr5:145543945:145543946:-_ENSG00000133706_ENST00000545646|hu_mus|motif|central (ssRNA)
RNA: GGGAGUUCUACAGUCCGACGAUCCUGAACGGCCAGUGGUGGGAAAUAAUCAAGCCAGUGCUCUGCUUCAGAAAACUUCACGGUGUCGUCAUCAGAGAGCCCAAGGGAUUUCAUAAUGUCCCACUGGUACUUAGAAGAUCCUGCCAACAGAGGAUUGAGCAUCA
B6: 61654354_61654474_902_CDS_ENSG00000171316_ENST00000423902|human|control|control (ssRNA)
RNA: GGGAGUUCUACAGUCCGACGAUCCUGGUAGGGGGCUCGUAUCUGGUCUGGUACCUGAACAGCCCUGGGGCCCCACAUGGAGCUGCUGUCCACAAAGGAUUGCCCAUGCCUCUCAUUCUGCAUGCCAGGGUAGACACCCAUCUGCAACAGAGGAUUGAGCAUCA
B7: chr3:167401952:167401953:-_ENSG00000114209_ENST00000497056|hu_hu|motif|central (ssRNA)
RNA: GGGAGUUCUACAGUCCGACGAUCAAAAGAAUGAUAAUAGCAAAAGUGAUGCAAAAUCUUCAGUGUGAGAUUAUGAUUAAGCGGCAUUUUACAAAAAUAUGGUGUAAGAUGGCAAUAAUCCCAUUCAACAUCCUGGAUUAGAUCCAACAGAGGAUUGAGCAUCA
B8: chr9:56975896:56975897:+_ENSMUSG00000042557_ENSMUST00000167715|mus_mus|FALSE|FALSE (ssRNA)
RNA: GGGAGUUCUACAGUCCGACGAUCACAUCAAAGCAUAUUUCUUUAAUAAAAAAUUGACAGUAUGUACAUUAUUUACAAAAAAGAAAAACCAAGUUAAAAUUGUGUGUGUGUGCAUGUGUGCGUGUGAGAGAGAAGCUGGUGGAUCAACAGAGGAUUGAGCAUCA
B9: chr4:95690885:95690886:+_ENSMUSG00000028572_ENSMUST00000156910|mus_mus|mus_mus_mus_hu_False|68_78 (ssRNA)
RNA: GGGAGUUCUACAGUCCGACGAUCUUUAGAAAAUGUUAAAUACCAUGCUAAAAUAUUGUAAUUUUAAAGUCUUAUUUUACCAGAAGUCACAGGCAAGCAGACACUACAAGAAUAUAUGAAAAUGAAACUCAACAAUAUAACUGUCAACAGAGGAUUGAGCAUCA
B10: 165947601_165947721_5469_CDS_ENSG00000153253_ENST00000283254|human|control|control (ssRNA)
RNA: GGGAGUUCUACAGUCCGACGAUCAUCAAUUCCAGCUUCCUUUUUAACAUAGGCAAAGUUGGACAUCCCAAAGAUGGCAUAGAUAAACAUGACCAGGAAGAGCAGGAGGCCGAUGUUAAACAACGCAGGAAGGGACAUCAUCAACAACAGAGGAUUGAGCAUCA
B11: 143576987_143577107_468_3pUTR_ENSMUSG00000039477_ENSMUST00000151477|mouse|control|control (ssRNA)
RNA: GGGAGUUCUACAGUCCGACGAUCCGCUCCGCGGCGUGCAUGGCGGCGGCCAGCGGGGCUUGCGCUCAACCACGGGCCCGCGGCCCGGGGCGCAUGAACCGCCCGCGGUGAGUCCCCUCCGGGCGGCUGAGCGGAGAUGAGGAACAACAGAGGAUUGAGCAUCA
B12: chr1:39494447:39494448:+_ENSG00000168653_ENST00000372967|hu_mus|hu_hu_hu_mus_False|68_98 (ssRNA)
RNA: GGGAGUUCUACAGUCCGACGAUCGCACCGAGCGGCGAUCUUGUAGGGCUGUUCUGCGCUUAGGAACGUCAACCAUCGGUCCAGGCUGAUGCCCAGCUUUUUCUGUAUGUCAAGGAAAGGCAUGGCUCUGCAGUGCCCUUGUCACAACAGAGGAUUGAGCAUCA
B13: chr16:94690093:94690094:+_ENSMUSG00000040785_ENSMUST00000117648|mus_hu|mus_mus_mus_hu_True|48_78 (ssRNA)
RNA: GGGAGUUCUACAGUCCGACGAUCGGGCUGGGAUGACGGACACACAGCCUCGAUUCCGGUAAAAAAAAGUCUUAGUCGAUACUAAUUUAAAAAGUAUAAUGAUUUUUGAAAAUCAGAUUACAUCUAUAAAAGAUGAAAAGCAAACAACAGAGGAUUGAGCAUCA
B14: chr1:184663225:184663226:-_ENSG00000116406_ENST00000318130|hu_mus|FALSE|FALSE (ssRNA)
RNA: GGGAGUUCUACAGUCCGACGAUCCACCAGAGUCUUUCCAGAGAGUCAUAGUUCAUCCUUCUCCAUCAUUUCAAAUGCUUCUAUGUCUUCAUUCCAGUCUGCUAAUAUGGAGUCUAUAGGCUGGGCCUUUGUACCCCAGCUGACCAACAGAGGAUUGAGCAUCA

What follows are binders tested against T1, UNK ZnF1-3 (assay: nsRBNS (natural sequence RNA bind-n-seq); RBNS binding buffer (assumed for nsRBNS): 25 mM Tris pH 7.5, 150 mM KCl, 3 mM MgCl2, 0.01% Triton X-100, 500 ug/ml BSA, 20 U/ml SUPERase-In, 4 C; UNK is unkempt and MSI1 is Musashi-1; names of the RNAs are library labels; protein concentration not given here; high values mean tight binding).
With B1 the binding signal was 0.904 enrichment R. B2 showed a binding signal of 1.27 enrichment R. With B3 the binding signal was 2.72 enrichment R. B4 gave a binding signal of 1.35 enrichment R. Work on B5 yielded a binding signal of 1.08 enrichment R. In the case of B6, the binding signal is reported as 1.12 enrichment R. B7 showed a binding signal of 0.902 enrichment R. B8 gave a binding signal of 2.96 enrichment R. Work on B9 yielded a binding signal of 2.45 enrichment R. B10 was tested, and the binding signal was 2.2 enrichment R. In the case of B11, the binding signal is reported as 0.781 enrichment R. For B12, the binding signal was 0.464 enrichment R. B13 showed a binding signal of 1.31 enrichment R. B14 gave a binding signal of 1.14 enrichment R.
